# Laboratory results from article PMC12136788.
# The other results are listed elsewhere or left out.
# B1: chr13:103288631:103288632:+_ENSG00000134900_ENST00000376065|hu_hu|motif|central (ssRNA)
# RNA: GGGAGUUCUACAGUCCGACGAUCCUGAACAGGAUCUCGGAGGUAGAUGCCACGGUUAUUUCCAACAGUAACAGUAAAACCGGAUUUAUUAGCAAAUGAUGUAUUCUGAACGAGGUAGUCAUAGGCUUUAUCAACCUGAAUAAUCAACAGAGGAUUGAGCAUCA
# B2: chr8:79514811:79514812:+_ENSG00000171033_ENST00000352966|hu_hu|motif|central (ssRNA)
# RNA: GGGAGUUCUACAGUCCGACGAUCCACCAAACAGACUGAAUUCAGGUGAUAUUCACAUUAAUGGAUAUUUUCAAAUGUCUCGGUAAUAAAGCAAUGGAGUCUUGAUGAAUCUGUUAGACUUAAUCAACUCAUCAACAUACAAUGCAACAGAGGAUUGAGCAUCA
# B3: chr2:156005782:156005783:-_ENSMUSG00000027620_ENSMUST00000109587|mus_mus|FALSE|FALSE (ssRNA)
# RNA: GGGAGUUCUACAGUCCGACGAUCGCGGUACCGCCCAACCCGAAUAUCGGGCCCCGAGGGCGUCUAGGCCCAAGCGAAUCUAAAAGAAACAAUGGGAUUAAAGGAGCCCGCGACGGAGAGCAGGGCAGCGGCUUCGGCAGCUCACAACAGAGGAUUGAGCAUCA
# B4: chrX:71549400:71549401:+_ENSMUSG00000019087_ENSMUST00000019231|mus_hu|mus_mus_mus_hu_False|8_38 (ssRNA)
# RNA: GGGAGUUCUACAGUCCGACGAUCGCAGUAGGAAGAGGGAAGCUCUUCAGUCCAGUGCGCUGCAGGGUGGGAAAGCAACAACACGGACACCGUCCCACCUCAAUUCCCCCCACUGGCACAGGGUCACAUCUGGGUCAUCAAAGACAACAGAGGAUUGAGCAUCA
# B5: 105948264_105948384_109_5pUTR_ENSG00000149313_ENST00000278618|human|control|control (ssRNA)
# RNA: GGGAGUUCUACAGUCCGACGAUCGUGGCCCCACCCCCUUCUUCCCGGCGUCCGUGCGCAGGGGACGGGCCGUCGCUACGCAGACUGGCCCACCGACAGCCCUCCCAGCCCGCCCCCGACUCAGCCACCUCCUCUCGGAGAAAGCAACAGAGGAUUGAGCAUCA
# B6: chr1:52977185:52977186:+_ENSMUSG00000041426_ENSMUST00000044478|mus_mus|motif|central (ssRNA)
# RNA: GGGAGUUCUACAGUCCGACGAUCUUUGCUCCAAAAUAAACUUUAGAAUUUCAAAUCACUGCUUCCCAGAGAUUUAAAGUAACGGUUCAAGUCUUCAUCCGUAACAUCUUUUAGAUUGGCUGGUUUCCAUUUUGGAGUCUGGUCCAACAGAGGAUUGAGCAUCA
# B7: chr8:27591085:27591086:-_ENSG00000147419_ENST00000356537|hu_hu|FALSE|FALSE (ssRNA)
# RNA: GGGAGUUCUACAGUCCGACGAUCUGGAUGUGAGCUUGCUCUGGCAGCAGCAGUGCUGUCCUUGUUUCUGAGCUGCCACCUAUUCACUGGAGUUAGGUGGGUCAAAGCUGAAAUUUAGCUUGGAAUUUAAGUUUCUAAUUUUAUCAACAGAGGAUUGAGCAUCA
# B8: 72187318_72187438_6261_3pUTR_ENSG00000148730_ENST00000373218|human|control|control (ssRNA)
# RNA: GGGAGUUCUACAGUCCGACGAUCCCAGGGCUGCAGGCAGAGAGCCAUAAGCAAAGAGAAUCCACAGACCCGCUGAACAGGGACUCAAGCCUUCUCCUAAAUCUAAGCUUUGCCAAAAGGUUAUCAACUUCCAGGACCAGCCUACAACAGAGGAUUGAGCAUCA
# B9: chr3:58352644:58352645:+_ENSMUSG00000027810_ENSMUST00000029387|mus_hu|FALSE|FALSE (ssRNA)
# RNA: GGGAGUUCUACAGUCCGACGAUCCUUGUGCAAGAUAGAGCCAGUAUAAUGCCAAAUUUUGUAUCCAUUAUUAACCCGUAACCUGGGAGCACAUGUAGCUGUUAAAAUAUGCUCACCAUCCGGGCACCAAGCAAAAUAUGUAGACAACAGAGGAUUGAGCAUCA
# B10: 98756215_98787438_173_CDS_ENSMUSG00000028556_ENSMUST00000030286|mouse|control|control (ssRNA)
# RNA: GGGAGUUCUACAGUCCGACGAUCGUGGGAUAUAUUGCCAACUAUGUUGAGGUUUUUGAGCAGCUGGGGGGAACCACUGUAUUGUCCGGAGAUCUGCUUUCUAACUUCAGCAGCAACAGUUCUGCUGAUCUUCUGAGCGAAGGCCAACAGAGGAUUGAGCAUCA
# B11: chr17:56552419:56552420:-_ENSMUSG00000013236_ENSMUST00000086828|mus_mus|mus_mus_mus_hu_False|1_8 (ssRNA)
# RNA: GGGAGUUCUACAGUCCGACGAUCAAAAAAUACACUAUUUAAAAAAAAUGAAAUGUCACGGGAUACAGUUACACUGAGAGUUUUAAAAGAAAGCUGGAUUCUGGUCCCAGCCCAGUGUCCCCAGGCUGAGUGCGGAAGCAGAGGCAACAGAGGAUUGAGCAUCA
# B12: chr7:7679991:7679992:-_ENSG00000106399_ENST00000396682|hu_hu|hu_hu_hu_mus_False|38_68 (ssRNA)
# RNA: GGGAGUUCUACAGUCCGACGAUCUGGGAUGAAUCUUUUCCAGCUUCCCCACGAAGCACACGGGCCGGUCGAUGAAUUGUGGUAACAUGCUGGCGUUGAUGCGCGACUUGGGGAGCUGCAUUAUGUCCUCCAUGAUUCUGCCGCCAACAGAGGAUUGAGCAUCA
# B13: chr12:493273:493274:-_ENSG00000073614_ENST00000399788|hu_mus|hu_hu_hu_mus_False|28_38 (ssRNA)
# RNA: GGGAGUUCUACAGUCCGACGAUCUUUUCUCUCCACCACAGGGAUCUUCAAUGUAGAUCCUUGAAGUUCCCAAAAUUUUGCCAGUUGAUCCAAGAAGUCCAAUCUCACUCUGGUCAUUGCCUCAAGUUCAUUCAGGCGCUGGACCAACAGAGGAUUGAGCAUCA
# B14: 57237035_57239225_1364_3pUTR_ENSMUSG00000019877_ENSMUST00000020027|mouse|control|control (ssRNA)
# RNA: GGGAGUUCUACAGUCCGACGAUCCUGGAAGAGAUUUUCACCCAGACUGCUGUCCACUGACUUUUCAUCUCACGAGAAGGCUCAUACCUGUACCAAUUGGUGAGGGUCAUCAUGAUGUAAAGUGAAGCCAAGAAGAGCAUGAAGCAACAGAGGAUUGAGCAUCA
# Target: T1, UNK ZnF1-3 (human, UniProt Q9C0B0 31-174)
# T1 sequence: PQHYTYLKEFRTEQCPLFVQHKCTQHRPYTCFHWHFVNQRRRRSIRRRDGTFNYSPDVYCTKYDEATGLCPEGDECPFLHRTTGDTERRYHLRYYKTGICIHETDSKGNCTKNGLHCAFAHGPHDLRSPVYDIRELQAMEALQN
# Assay: nsRBNS (natural sequence RNA bind-n-seq); RBNS binding buffer (assumed for nsRBNS): 25 mM Tris pH 7.5, 150 mM KCl, 3 mM MgCl2, 0.01% Triton X-100, 500 ug/ml BSA, 20 U/ml SUPERase-In, 4 C; UNK is unkempt and MSI1 is Musashi-1; names of the RNAs are library labels; protein concentration not given here; high values mean tight binding
row,Binder,binding signal [enrichment R]
1,B1,1.23
2,B2,0.891
3,B3,1.07
4,B4,1.27
5,B5,1.15
6,B6,0.948
7,B7,0.555
8,B8,1.22
9,B9,1.6
10,B10,0.684
11,B11,1.71
12,B12,0.522
13,B13,1.13
14,B14,1.42
